Counter-ions that a name gives are not always drawn. This is one part of the list. Single values are uncertain, as repeats are few or missing.
Columns and labels:
[1] = tested on: H9 teratoma-derived LAM model cells, TSC2-/-; test: percent SyTOX+ dead cells; higher = more cytotoxic; details: 5 µM, treatment time 72 h, culture: 3D hyaluronic acid hydrogel
[2] = tested on: H9 teratoma-derived LAM model cells, WT; test: percent SyTOX+ dead cells; higher = more cytotoxic; details: 5 µM, treatment time 72 h, culture: 3D hyaluronic acid hydrogel, genotype: WT
[3] = tested on: H9 teratoma-derived LAM model cells, TSC2-/-; test: percent of cells invaded past median invasion distance of vehicle control; LAM is lymphangioleiomyomatosis; the cells come from teratomas of the human stem cell line H9; higher = more invasion; extreme values may be limits of the assay; details: 5 µM, treatment time 72 h, culture: 3D hyaluronic acid hydrogel
[4] = tested on: H9 teratoma-derived LAM model cells, WT; test: as above; details: 5 µM, treatment time 72 h, culture: 3D hyaluronic acid hydrogel, genotype: WT
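Throughout, for percent SyTOX+ dead cells: cells seeded atop a hyaluronic acid gel crosslinked via MMP-cleavable peptides, containing vitronectin peptides and methylcellulose, imaged live by high-content microscopy with automated analysis, one technical replicate per compound.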
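Throughout, for percent of cells invaded past median invasion distance of vehicle control: live cells imaged by high content microscopy and scored with in-house automated image analysis, one technical replicate per compound in each genotype and rapamycin condition.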

| SMILES | percent SyTOX+ dead cells ([1]; rapamycin 0 nM) [%] | percent SyTOX+ dead cells ([1]; rapamycin 20 nM) [%] | percent SyTOX+ dead cells ([2]; rapamycin 0 nM) [%] | percent SyTOX+ dead cells ([2]; rapamycin 20 nM) [%] | percent ([3]; rapamycin 0 nM) [%] | percent ([3]; rapamycin 20 nM) [%] | percent ([4]; rapamycin 0 nM) [%] | percent ([4]; rapamycin 20 nM) [%] |
| --- | --- | --- | --- | --- | --- | --- | --- | --- |
| CCN(CCCOc1ccc2c(Nc3cc(CC(=O)Nc4cccc(F)c4)[nH]n3)ncnc2c1)CCOP(=O)(O)O [AZD-1152, Barasertib] | 26.4 | 14.3 | 24.1 | 16.8 | 23.1 | 42.1 | 33.8 | 38.8 |
| O=C(O)c1ccc(Nc2ncc3c(n2)-c2ccc(Cl)cc2C(c2c(F)cccc2F)=NC3)cc1 | 19.7 | 7.32 | 28.6 | 25.6 | 51.6 | 54.3 | 33.3 | 27.3 |
| CC(C)N(CCCNC(=O)Nc1ccc(C(C)(C)C)cc1)C[C@H]1O[C@@H](n2ccc3c(N)ncnc32)[C@H](O)[C@@H]1O | 11 | 14 | 17.6 | 18.5 | 61.5 | 57 | 66.4 | 52.1 |
| Cc1cc(C(C)Nc2ccccc2)c2nc(N3CCOCC3)cc(=O)n2c1 (stereo not given) | 17.6 | 16.9 | 32.3 | 19.4 | 17.6 | 11.3 | 30.7 | 38.2 |
| Cn1c(C2=C(c3c4n(c5ccccc35)CCC(CN)C4)C(=O)NC2=O)cc2ccccc21 (stereo not given) [Bisindoylmaleimide X, HCl salt] | 96 | 94.5 | 94.2 | 92 | 30.3 | 34.1 | 7.03 | 16.9 |
| CN(C)CC[C@H](CSc1ccccc1)Nc1ccc(S(=O)(=O)NC(=O)c2ccc(N3CCN(Cc4ccccc4-c4ccc(Cl)cc4)CC3)cc2)cc1[N+](=O)[O-] | 41.4 | 32.8 | 19.6 | 16 | 70.6 | 35.4 | 45.6 | 33.6 |
| N#C/C(=C(/N)Sc1ccc(N)cc1)c1ccccc1C(F)(F)F | 33.8 | 13 | 9.43 | 12.7 | 49.6 | 35.4 | 1.26 | 6.35 |
| C=CCn1c(=O)c2cnc(Nc3ccc(N4CCN(C)CC4)cc3)nc2n1-c1cccc(C(C)(C)O)n1 | 23.6 | 22.5 | 32.4 | 27 | 57.6 | 36 | 8.45 | 11.7 |
| COc1cc2ncn(-c3cc(OCc4ccccc4C(F)(F)F)c(C(N)=O)s3)c2cc1OC | 9.84 | 14.5 | 5.5 | 8.57 | 7.87 | 17.3 | 9.63 | 20.6 |
| CN(C)c1ccc(/C=C2/C(=O)Nc3ccccc32)cc1 | 17.5 | 17.9 | 31.4 | 17.7 | 36.8 | 11.3 | 0.98 | 3.8 |
| Cn1cc(C2=C(c3ccc(Cl)cc3Cl)C(=O)NC2=O)c2ccccc21 | 41.5 | 38.4 | 36.4 | 32.7 | 50.3 | 21.8 | 17.2 | 19.4 |
| COc1cc2c(cc1OC)-c1[nH]nc(Nc3cccc(F)c3)c1C2 | 20.7 | 32.6 | 31.4 | 33.7 | 39.1 | 40.1 | 0 | 0 |
| COc1nccc(-c2c(-c3ccc(F)cc3)ncn2C2CCC(O)CC2)n1 (stereo not given) | 6.6 | 14.1 | 12.2 | 6.67 | 25 | 1.56 | 8.14 | 9.33 |
| CN(C)CCOc1ccc(-c2nc(-c3ccncc3)c(-c3ccc4c(c3)CC/C4=N\O)[nH]2)cc1 | 9.85 | 8.45 | 19.4 | 11.2 | 37.6 | 20.1 | 14.7 | 17.5 |
| CCOc1ccn(-c2ccc(F)cc2)c(=O)c1C(=O)Nc1ccc(Oc2ccnc(N)c2Cl)c(F)c1 | 13.1 | 3.25 | 22.8 | 25 | 94.9 | 38.3 | 83.8 | 20 |

Reference: the supplement of paper PMC10502849
